Test results reported in PubChem BioAssay AID651820 (National Center for Advancing Translational Sciences (NCATS), 2012).
In all, about 340,000 compounds went through this assay and about 12,000 (3.5%) were called active. Inconclusive results, whose numbers are uncertain, are shown with a selection of clear calls. The call rests on the fitted dose curve; in most records, active means well fitted inhibition curve with a large enough effect; inconclusive means small, poorly fitted or top-dose-only effect, or another doubt; inactive means no such curve, though single readings can be large or run the other way. No potency is given beside an inconclusive call; the fits are too rough.

Assay: qHTS Assay for Inhibitors of Hepatitis C Virus (HCV)
Details: Huh7.5.1 HCVcc-Cre (HCVcc is cell-culture hepatitis C virus) infection, luciferase reporter, 44 h; activity change, negative = inhibition: at 41.8 µM (top of the series)
Summary of the method: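 Antiviral activity was scored by luciferase reporter output from cells infected with HCVcc-Cre (~0.5 moi) in presence of compound, 44 h infection period, cells seeded 1,000/well 4 h prior.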
On the % scale 0 is the no-effect control and ±100 the full control effect; potency means the concentration at half of the fitted maximal effect; tags describe the fitted curve by direction and shape.

Compound	activity change, negative = inhibition	Potency
Cc1cc2ncn(/N=C/c3ccc4c(c3)OCO4)c2cc1C	inactive: -28.8%	
CCCCNC(=O)c1cc2cc(CC)ccc2[nH]1		inconclusive [inhibitor, single point]
Cc1c(C(=O)NCc2ccc(F)cc2)c(-c2ccccc2)nn1-c1ccccc1	inactive: -12.1%	
COc1cccc(CN(C)C(=O)c2cccc(NC(=O)CC3SC(N4CCCCC4)=NC3=O)c2)c1OC (centres undefined)	inactive: -15.2%	
CC(NC(=O)c1ccc2c(=O)n3c(nc2c1)CCCCC3)c1ccccc1 (centres undefined)		inconclusive [inhibitor, single point]
COC(=O)C1=C(C)N(c2cc(Cl)cc(Cl)c2)C(=O)C1		inconclusive [inhibitor, single point]
Cn1c(N2CCN(C(=O)Nc3ccc(F)cc3)CC2)nc2ccccc21		inconclusive [inhibitor, single point]
Cc1sc(NC(=O)CSc2nnc(-c3ccccc3)o2)c(C#N)c1C		inconclusive [inhibitor, single point]
CCN(CC)c1ccc(/C=N/N2CCN(Cc3ccccc3Cl)CC2)c(O)c1		inconclusive [inhibitor, single point]
COc1ccc(N(CC(=O)N/N=C/c2ccc(OC3CSC3)cc2)S(=O)(=O)c2ccccc2)cc1		inconclusive [inhibitor, single point]
O=C(N1CCOCC1)N1CCC(NC(=O)C23CC4CC(CC(C4)C2)C3)CC1		inconclusive [inhibitor, single point]
CCOc1ccc(S(=O)(=O)N(CC(=O)N2CCc3ccccc32)Cc2ccco2)cc1		inconclusive [inhibitor, single point]
COc1ccc(/C=N/Nc2ncnc(Cl)c2N)cc1OC	inactive: 26.1%	
CC(C)C[C@@H](CO)NS(=O)(=O)c1c(F)cccc1F		active: 3.55 µM
O=C(Nc1nc2ccccc2n1CCOc1ccc(Cl)cc1)c1ccco1		inconclusive [inhibitor, single point]
CN(CCCN1CCCCC1)C(=O)CCc1nnc(C2CCCCC2)o1	inactive: 10.3%	
CCCCOc1ccc(C(=O)CCN2CCCCC2)cc1		inactive
Cc1ccc(C(=O)N2c3ccccc3N(Cc3ccccc3)C(=O)C2(C)C)cc1		active: 11.2 µM
CSc1ccc(C(=O)C2CCCN(C(=O)c3nn(C)c(=O)c4ccccc34)C2)cc1 (centres undefined)		active: 12.6 µM
COc1cccc(C(=O)NNC2=C(C(=O)C(F)(F)F)CCC2)c1		inconclusive [inhibitor, single point]
O=C(/C=C/c1ccccc1[N+](=O)[O-])NCC1CCCO1 (centres undefined)	inactive: 11.4%	
COc1ccc(-c2nc(N)ncc2-c2ccccc2OC)c(O)c1		inconclusive [inhibitor, single point]
COc1cc(-c2nnc(-c3ccco3)o2)ccc1OCc1ccccc1		inconclusive [inhibitor, partial curve]

Compound	activity change, negative = inhibition	Potency
Cc1[nH]c2ccccc2c1/C=C(\C#N)C(=O)NCC1CCCO1 (centres undefined)		inconclusive [inhibitor, single point]
COc1ccc(NC(=O)COc2ccc(CNCCCN3CCOCC3)cc2OC)cc1		inconclusive [inhibitor, single point]
CC(=O)N1CC(C(=O)Nc2ccc3c(c2)OCO3)Oc2ccccc21 (centres undefined)	inactive: 31.9%	
CCN1CCN(C(=O)C2CCN(Cc3nc(-c4cccc(Cl)c4)oc3C)CC2)CC1		inconclusive [inhibitor, partial curve]
CCCCN(C(=O)CSc1cc(C)c2ccc(OC)cc2n1)c1c(N)n(Cc2ccccc2)c(=O)[nH]c1=O		inconclusive [inhibitor, partial curve]
CN(C)C(=O)Oc1ccc2oc(=O)cc(-c3cc4ccccc4o3)c2c1		active: 11.2 µM
COc1ccccc1C(C)NC(=O)CCC(=O)N1CCN(S(=O)(=O)c2ccc(Cl)cc2)CC1 (centres undefined)		inconclusive [inhibitor, single point]
COc1ccc([C@H]2/C=C\CN(C(=O)C3CCCC3)[C@@H](C)C(=O)N2Cc2ccc(F)cc2)cc1		inconclusive [inhibitor, single point]
COC(=O)C1=CN(c2ccc(F)cc2)C=C(C(=O)OC)C1c1ccc(O)cc1		active: 11.2 µM
Cc1cccc(C)c1NC(=O)CCCCCNS(=O)(=O)c1ccccc1		inconclusive [inhibitor, single point]
CC(NC(c1ccccc1)c1ccccc1)C(=O)N1CCCc2ccccc21 (centres undefined)	inactive: -9.88%	
Cc1nn2cc(-c3cccc(Cl)c3)cnc2c1Br		inconclusive [inhibitor, single point]
COc1ccc(NC(=O)CN(C)C(=O)c2ccccc2OCC(=O)Nc2cccc(C(F)(F)F)c2)cc1		inconclusive [inhibitor, single point]
Cc1ccc(-c2ccc(=O)n(CC(=O)N3CCN(c4cccc(C)c4)C(C)C3)n2)cc1 (centres undefined)		inconclusive [inhibitor, single point]
CCN1CCCC1CNC(=O)C(=O)NC(C)c1ccccc1 (centres undefined)	inactive: 1.61%	
CCOC(=O)C1=C(CNCCc2ccc(Cl)cc2)NC(=O)NC1c1cccc([N+](=O)[O-])c1 (centres undefined)		inconclusive [inhibitor, partial curve]
COC(=O)C1C=CC(OC2OC(COC(C)=O)C(OC(C)=O)C(OC(C)=O)C2OC(C)=O)n2c(=O)n(-c3ccccc3)c(=O)n21 (centres undefined)		active: 10 µM
O=C(c1nc2ccc(Cl)cn2c1CN1CCCC(CO)C1)N1CCc2ccccc2C1 (centres undefined)		inconclusive [inhibitor, single point]
COCCCn1c(N)c(C(=O)NCCC(C)C)c2nc3ccccc3nc21		active: 8.91 µM
Cc1c(-c2ccccc2)c(-c2ccc(OCCN(C)C)cc2)n2ccccc12		inconclusive [inhibitor, single point]
Cc1ccc(OCc2cc(C(=O)N3CC4C[C@@H]5CC3C[C@H](C4)C5)no2)cc1C		inconclusive [inhibitor, single point]
O=C(NCCN1CCCC1)c1ccc(Cn2c(=S)[nH]c3ccc(Br)cc3c2=O)cc1		inconclusive [inhibitor, partial curve]
Cn1c(C(=O)OC(C(=O)NC2CCCCC2)c2ccccn2)cc2sccc21 (centres undefined)		inconclusive [inhibitor, single point]

Compound	activity change, negative = inhibition	Potency
COc1cc(CO)ccc1OCc1nnnn1-c1ccc(C)cc1	inactive: -17.8%	
COc1ccccc1CNCC(=O)Nc1cc(S(=O)(=O)N2CCOCC2)ccc1Cl		inconclusive [inhibitor, full curve, poor fit]
CCc1ccccc1NC(=O)Nc1cccc(F)c1	inactive: -25.5%	
O=C(NCCCN1CCOCC1)c1ccc(Sc2ccc(F)cc2)c([N+](=O)[O-])c1		inconclusive [inhibitor, partial curve]
Cc1cc(C)n(CC(O)CN2c3ccccc3Sc3ccccc32)n1 (centres undefined)		inconclusive [inhibitor, single point]
O=C(CN1c2cccc3cccc(c23)S1(=O)=O)NCc1ccc(Cl)cc1		inconclusive [inhibitor, single point]
COc1ccc(C2(c3ccc(OC(C)=O)cc3OC(C)=O)CC(c3ccccc3)NC(=S)N2)cc1 (centres undefined)		inconclusive [inhibitor, single point]
CC1=NOC(=O)/C1=C\c1ccc(-c2ccccc2Br)o1	inactive: -17.4%	
O=C(Nc1ccc2c(c1)nc1n2CCCCC1)c1cc(S(=O)(=O)N2CCOCC2)ccc1Cl		inconclusive [inhibitor, single point]
O=[N+]([O-])c1cc(S(=O)(=O)CCCN2CCOCC2)ccc1F		inconclusive [inhibitor, single point]
Cc1ccc(N2CCN(C3=NC(=O)/C(=C\c4cccs4)S3)CC2)cc1		inconclusive [inhibitor, single point]
Cn1c2c(c3ccccc31)CCSC2=O		inconclusive [inhibitor, single point]
CCOC(=O)c1ccc(NC(=O)CCc2nc(-c3ccccc3Cl)no2)cc1		active: 11.2 µM
COc1ccc(Cl)cc1NC(=O)CSc1nc(=O)n(CCN(C)C)c2c1CCCC2		active: 11.2 µM
C=CCN1C(=O)C(Cc2ccc(OCC)cc2)S/C1=N\N=C\c1cccs1 (centres undefined)		inconclusive [inhibitor, single point]
Cn1c(C(=O)NC2CCCCC2)cc2c(=O)n(C)c3ccccc3c21		inconclusive [inhibitor, single point]
C/C(=N/NC(=O)CN1CCN(Cc2ccccc2Cl)CC1)c1cccnc1	inactive: 5.09%	
COc1cc([N+](=O)[O-])cc(/C=N/NC(=O)CSc2nnc(-c3ccccc3)n2C)c1O		inconclusive [inhibitor, single point]
CC(=O)Nc1cc2c(cc1C(=O)C(C)C)OCCO2		inconclusive [inhibitor, single point]
COc1ccc(NC(=S)N(CCC(C)C)C2CCN(C(C)C)CC2)cc1Cl		active: 3.98 µM
CC12CCC(c3nnc(SCc4ccc(Cl)cc4)nc31)C2(C)C (centres undefined)	inactive: 8.9%	
COCCCNC(=O)c1ccc(-c2nc3ccccc3nc2-c2ccccc2)cc1		inconclusive [inhibitor, single point]
CCN(CC)C(=O)CSc1nnc(-c2cc3ccccc3cc2O)n1CC		inconclusive [inhibitor, single point]
